Test results taken from publication PMC4336329 (PLoS ONE, 2015).
Out of some 310,000 compounds screened, about 14,000 (4.5%) showed an effect of 50% or more. The effect is printed as a negative number. Some of the results follow.

The compounds below were run against human ether-à-go-go-related gene (hERG) potassium channel (human, UniProt Q12809) (assay: primary screen, population patch clamp on CHO cells stably expressing hERG).
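Further: peak tail current of the secondary pulse compared with the same well before compound.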

human ether-à-go-go-related gene (hERG) potassium channel, sequence (Q12809 whole entry, looked up): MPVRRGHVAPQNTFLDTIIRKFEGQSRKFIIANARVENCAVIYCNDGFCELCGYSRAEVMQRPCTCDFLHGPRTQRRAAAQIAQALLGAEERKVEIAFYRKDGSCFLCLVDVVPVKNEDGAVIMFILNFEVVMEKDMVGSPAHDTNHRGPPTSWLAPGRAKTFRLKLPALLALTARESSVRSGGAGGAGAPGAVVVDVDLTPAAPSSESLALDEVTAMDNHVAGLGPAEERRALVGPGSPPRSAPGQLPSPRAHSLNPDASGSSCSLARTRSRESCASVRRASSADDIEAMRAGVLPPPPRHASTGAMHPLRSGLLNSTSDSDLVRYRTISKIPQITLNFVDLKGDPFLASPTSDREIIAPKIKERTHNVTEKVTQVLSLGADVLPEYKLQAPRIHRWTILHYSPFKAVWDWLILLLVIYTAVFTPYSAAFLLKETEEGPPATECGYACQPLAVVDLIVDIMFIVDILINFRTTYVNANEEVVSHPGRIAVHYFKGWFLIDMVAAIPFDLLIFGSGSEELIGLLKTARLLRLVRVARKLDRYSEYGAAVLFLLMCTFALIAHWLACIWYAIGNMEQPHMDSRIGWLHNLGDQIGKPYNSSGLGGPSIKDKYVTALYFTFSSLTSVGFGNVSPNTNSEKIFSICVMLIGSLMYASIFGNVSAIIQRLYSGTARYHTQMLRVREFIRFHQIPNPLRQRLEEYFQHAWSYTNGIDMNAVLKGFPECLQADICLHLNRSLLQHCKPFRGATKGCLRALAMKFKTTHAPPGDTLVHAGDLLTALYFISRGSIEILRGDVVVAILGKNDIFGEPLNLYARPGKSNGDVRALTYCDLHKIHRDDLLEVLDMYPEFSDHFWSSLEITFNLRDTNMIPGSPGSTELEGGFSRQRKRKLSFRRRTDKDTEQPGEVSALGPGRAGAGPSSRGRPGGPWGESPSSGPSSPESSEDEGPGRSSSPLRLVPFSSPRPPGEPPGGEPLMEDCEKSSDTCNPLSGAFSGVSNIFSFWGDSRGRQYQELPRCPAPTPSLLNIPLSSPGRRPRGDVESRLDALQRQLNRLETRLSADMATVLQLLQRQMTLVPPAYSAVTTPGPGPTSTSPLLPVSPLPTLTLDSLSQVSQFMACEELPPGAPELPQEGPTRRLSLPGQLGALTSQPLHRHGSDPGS

Row | SMILES | hERG current change (%, negative = inhibition) at 10uM
1 | CC(C)CNS(=O)(=O)c1cc(C(=O)OC2CCOC2=O)c(Cl)cc1Cl (centres unmarked) | 0.965%
2 | Cc1ccc(-c2cccc(NC(=O)C3C(C(=O)O)[C@@H]4C=C[C@H]3C4)c2)o1 (some centres unmarked) | -28%
3 | Cc1cc(C(=O)NC2CC(C)(C)Cc3c2cnn3-c2ccc(F)cc2)nn1C (centres unmarked) | -14.8%
4 | CC(=O)Nc1ccc(Nc2cc(C)nc3c(-c4ccc(Cl)cc4)cnn23)cc1 | 11%
5 | CCCCNC(=O)C1CCN(S(=O)(=O)N2CCCCCC2)CC1 | -20.5%
6 | CCOC(=O)CNS(=O)(=O)c1ccc(S(=O)(=O)NC2CC2)cc1 | 17%
7 | c1ccc(CSc2nnc3c4ccccc4c4ccccc4c3n2)cc1 | 16.7%
8 | COc1ccc(-n2cnc3cc(NC(=O)c4ccco4)ccc32)cc1 | -36%
9 | COCCN(C(=O)COC(=O)c1ccco1)c1c(N)n(Cc2ccccc2)c(=O)[nH]c1=O | -12.5%
10 | COc1cc2c(cc1OC)C(c1cc3cc(OC)c(OC)cc3[nH]c1=O)N(C(=O)C1CC1)CC2 (centres unmarked) | 3.99%
11 | CC(=O)Nc1ccc(N/C=C/C(=O)c2ccc(Cl)cc2)cc1 | 16.6%
12 | OC(c1ccc(F)cc1)(c1ccc(F)cc1)[C@@H]1CCCN1 | 7.57%
13 | O=C(CCSCc1ccccc1F)NCc1cccs1 | -7.78%
14 | Cc1ccc(-c2nc3cnccn3c2Nc2ccc3c(c2)OCO3)o1 | -52.7%
15 | COCCn1c(-c2ccsc2)nc2c1c(=O)[nH]c(=O)n2CC(C)C | -20.1%
16 | N#Cc1c(CSCC(=O)O)cc(=O)n2c1[nH]c1ccccc12 | 11.9%
17 | NC(=O)CSc1nnc(-c2ccccc2)c(-c2ccccc2)n1 | 4.2%
18 | O=C(NCC1CC1)c1ccc2c(c1)S(=O)(=O)c1cc(Cl)ccc1C2=O | -38.9%
19 | C=CCNc1cc(C(F)(F)F)nc(-c2ccccn2)n1 | -13.7%

Row | SMILES | hERG current change (%, negative = inhibition) at 10uM
20 | Cc1nc2ccc(Cl)cc2c(-c2ccccc2)c1C(=O)[O-].N[NH3+] | 10.7%
21 | O=C(CCN1C(=O)/C(=C/c2ccco2)SC1=S)Nc1ccc(C(=O)O)c(O)c1 | 25.1%
22 | CC(=O)Nc1ccc(NC(=O)c2cccc(-c3cc4ccccc4oc3=O)c2)cc1 | -5%
23 | COc1ccc(Cl)cc1S(=O)(=O)N1CCC(C(=O)NCCC2=CCCCC2)CC1 | -40.1%
24 | CCCCCN(C(=O)CN1CCC(Cc2ccccc2)CC1)c1c(N)n(CCCC)c(=O)[nH]c1=O | -48.1%
25 | CC1CN(S(=O)(=O)N2CCOCC2)CCN1S(=O)(=O)N1CCOCC1 (centres unmarked) | 15.3%
26 | Cc1cccc(C(=O)N2CCC(Cc3ccccc3)CC2)c1[N+](=O)[O-] | -21.6%
27 | Cc1cccc(C(=O)OCC(=O)Nc2ccc3c(c2)OCCO3)c1O | 13.2%
28 | CCCN(CCC)S(=O)(=O)c1ccc(C(=O)N2CCOCC2)cc1 | -5.49%
29 | COc1ccc(C2CC(c3ccc(F)cc3)Nc3nc(N)nn32)cc1 (centres unmarked) | -27%
30 | NS(=O)(=O)c1ccc(NC(=O)C2Cc3ccccc3C(=O)O2)cc1 (centres unmarked) | 0.278%
31 | Cc1cc(C)c(OCC(=O)OCC(=O)NC2CCCCCCC2)c(C)c1 | -7.6%
32 | C#CCNC(=O)C1=C[C@H](c2csc3ccccc23)C[C@H](OCCCCO)O1 | -13.6%
33 | Cn1c(C(=O)O)cc2cc(F)ccc21 | -10.8%
34 | COc1ccc(NC(=O)CN(C)C(=O)c2cn(-c3ccccc3)nc2-c2ccc(OC)cc2)cc1 | -7.66%
35 | Cc1cc(F)ccc1NC(=O)C1CCCO1 (centres unmarked) | 15.2%
36 | CSCCC(NC(=O)COc1ccccc1)C(=O)NC1CCC(C)CC1 (centres unmarked) | -18.9%
37 | CCOC(=O)C1CCN(C(=O)c2sccc2Cl)CC1 | 1.66%
38 | COc1ccc(CC(=O)NNS(=O)(=O)c2ccc(F)cc2)cc1 | 15.1%

Row | SMILES | hERG current change (%, negative = inhibition) at 10uM
39 | O=C(COC(=O)CNC(=O)c1ccc(Cl)c([N+](=O)[O-])c1)NNC(=O)c1ccccc1F | -14.6%
40 | Cc1cc(C)c(C#N)c(Nc2cccc(Br)c2)n1 | 12.5%
41 | Cc1nnc(NC(=O)CCn2cnc3ccccc3c2=O)s1 | 24.2%
42 | O=C1C=C(Nc2ccccc2C(=O)O)c2ccccc2C1=O | 11.9%
43 | CCOc1ccc(S(=O)(=O)NCCC(=O)N(C)CC(=O)Nc2ccc(N3CCOCC3)cc2)cc1 | -5.05%
44 | Cn1c(=O)oc2cc(S(=O)(=O)N3CCCC(C(=O)NCCN4CCOCC4)C3)ccc21 (centres unmarked) | 11.3%
45 | Cc1ccccc1-c1nc(CS(=O)CC(=O)N2CCC3(CC2)OCCO3)c(C)o1 (centres unmarked) | -0.566%
46 | C1CSC2(N1)C1CC3CC2CC(C1)C31NCCS1.Cl (centres unmarked) | 6.93%
47 | NC(=O)c1ccc(NC(=O)CCC(=O)c2cccs2)cc1 | 14.7%
48 | CC1CCCN(CCCNS(=O)(=O)c2ccc3c(c2)CCN3C(=O)C2CC2)C1 (centres unmarked) | -3.1%
49 | CC(=O)Nc1ccc(OCC(O)Cn2cnc3ccccc32)cc1 (centres unmarked) | 16%
50 | Cc1nn(C)cc1S(=O)(=O)N1CCN(c2ccc(F)cc2)CC1 | -14%
51 | COc1ccc(NC(=O)COC(=O)CCCC2=NS(=O)(=O)c3ccccc3N2)cc1Cl | 38.8%
52 | O=C(CC(C(=O)O)c1ccccc1)Nc1ccccc1 (centres unmarked) | 15%
53 | Cc1ccc(NC2(c3nnnn3-c3c(C)cccc3C)CCCCC2)cc1 | 7.77%
54 | CC1(C)Oc2ccc3ccc(=O)oc3c2C(/C=N/O)C1=O (centres unmarked) | 3.87%
55 | COCCCn1c(SCC(=O)N2CCCCC2C)nnc1-c1ccco1 (centres unmarked) | -14.9%
56 | Nc1[nH]n(-c2ccccc2)c(=O)c1N=Nc1ccc2c(c1)OCO2 | 6.37%
